Assay results: patent US10596171B2, “Cap-dependent endonuclease inhibitors” (priority 2018, dated 2020)

Test system: influenza A virus
Experiment: microbe, parasite or virus in culture
Conditions: MDCK, 72 h, read-out: EC50 (reduce virus-induced CPE by 50%)

| Compound | EC50 |
| --- | --- |
| C=CC1N(C2c3ccccc3SCc3c2ccc(F)c3F)n2ccc(=O)c(O)c2C(=O)C12CC2 (stereo not shown) [Compound 25] | < 100 nM |
| O=C1c2c(O)c(=O)ccn2N(C2c3ccc(F)cc3COc3c(Cl)cccc32)CC12CC2 (stereo not shown) [Compound 15] | 100 to 1000 nM |
| CCOC(=O)C1CC12CN(C1c3ccccc3SCc3c1ccc(F)c3F)n1ccc(=O)c(O)c1C2=O (stereo not shown) [Compound 32] | < 100 nM |
| O=C1c2c(O)c(=O)ccn2N(C2c3ccccc3SCc3c2ccc(F)c3F)CC12CC2 (stereo not shown) [Compound 2] | < 100 nM |
| O=C1c2c(O)c(=O)ccn2N(C2c3ccc(F)c(F)c3CSc3c(Cl)cccc32)CC12CC2 (stereo not shown) [Compound 18] | < 100 nM |
| Cc1cccc2c1SCc1c(ccc(F)c1F)C2N1CC2(CC2)C(=O)c2c(O)c(=O)ccn21 (stereo not shown) [Compound 16] | < 100 nM |
| CCC1N(C2c3ccccc3SCc3c2ccc(F)c3F)n2ccc(=O)c(O)c2C(=O)C12CC2 (stereo not shown) [Compound 22] | < 100 nM |
| Cc1cccc2c1SCc1cc(Cl)ccc1C2N1CC2(CC2)C(=O)c2c(O)c(=O)ccn21 (stereo not shown) [Compound 6] | < 100 nM |
| O=C1c2c(O)c(=O)ccn2N(C2c3ccccc3CSc3c(Cl)cccc32)CC12CC2 (stereo not shown) [Compound 13] | < 100 nM |
| Cc1cccc2c1SCc1cc(F)ccc1C2N1CC2(CC2)C(=O)c2c(O)c(=O)ccn21 (stereo not shown) [Compound 7] | < 100 nM |
| Cc1cccc2c1SCc1c(ccc(F)c1F)C2N1CC2(CC2C)C(=O)c2c(O)c(=O)ccn21 (stereo not shown) [Compound 36] | < 100 nM |
| Cc1cccc2c1SCc1c(ccc(F)c1F)C2N1CC2(CC2)C(=O)c2c(O)c(=O)cc(C)n21 (stereo not shown) [Compound 31] | 100 to 1000 nM |
| CCC1CC12CN(C1c3ccccc3SCc3c1ccc(F)c3F)n1ccc(=O)c(O)c1C2=O (stereo not shown) [Compound 37] | < 100 nM |
| O=C1c2c(O)c(=O)ccn2N(C2c3ccccc3SCc3c(F)cccc32)CC12CC2 (stereo not shown) [Compound 1, 1-(1-Fluoro-5,11-dihydro-10-thia-dibenzo[a,d]cyclohepten-5-yl)-5-hydroxy-3,3-cyclopropyl-2,3-dihydro-1H-pyrido[1,2-b]pyridazine-4,6-dione] | < 100 nM |
| COCC1CC12CN(C1c3ccccc3SCc3c1ccc(F)c3F)n1ccc(=O)c(O)c1C2=O (stereo not shown) [Compound 38] | < 100 nM |
| O=C1c2c(O)c(=O)ccn2N(C2c3ccccc3SCc3cccc(Br)c32)CC12CC2 (stereo not shown) [Compound 29] | < 100 nM |
| O=C1c2c(O)c(=O)ccn2N(C2c3ccccc3CSc3c(F)cccc32)CC12CC2 (stereo not shown) [Compound 9] | < 100 nM |
| O=C(O)C1CC12CN(C1c3ccccc3SCc3c1ccc(F)c3F)n1ccc(=O)c(O)c1C2=O (stereo not shown) [Compound 33] | < 100 nM |
| CC1CC12CN(C1c3ccc(F)c(F)c3CSc3c(F)cccc31)n1ccc(=O)c(O)c1C2=O (stereo not shown) [Compound 35] | < 100 nM |
| CC1N(C2c3ccccc3SCc3c2ccc(F)c3F)n2ccc(=O)c(O)c2C(=O)C12CC2 (stereo not shown) [Compound 21] | < 100 nM |

| Compound | EC50 |
| --- | --- |
| O=C1c2c(O)c(=O)ccn2N(C2c3ccc(Cl)cc3CSc3c(F)cccc32)CC12CC2 (stereo not shown) [Compound 14] | 100 to 1000 nM |
| O=C1c2c(O)c(=O)ccn2N(C2c3cccc(F)c3CSc3c(Cl)cccc32)CC12CC2 (stereo not shown) [Compound 12] | 100 to 1000 nM |
| O=C1c2c(O)c(=O)ccn2N(C2c3ccc(F)cc3CSc3c(Cl)cccc32)CC12CC2 (stereo not shown) [Compound 3] | < 100 nM |
| O=C1c2c(O)c(=O)ccn2N(C2c3ccc(F)cc3CSc3c(F)cccc32)CC12CC2 (stereo not shown) [Compound 5] | < 100 nM |
| Cc1cc(=O)c(O)c2n1N(C1c3ccccc3SCc3c1ccc(F)c3F)CC1(CC1)C2=O (stereo not shown) [Compound 28] | < 100 nM |
| Cc1cc(=O)c(O)c2n1N(C1c3ccc(F)c(F)c3CSc3c(F)cccc31)CC1(CC1)C2=O (stereo not shown) [Compound 30] | < 100 nM |
| O=C1c2c(O)c(=O)ccn2N(C2c3ccc(F)cc3CSc3ccccc32)CC12CC2 (stereo not shown) [Compound 8] | < 100 nM |
| O=C1c2c(O)c(=O)ccn2N(C2c3ccccc3SCc3c2ccc(F)c3F)CC12CC2COCc1ccccc1 (stereo not shown) [Compound 34] | 100 to 1000 nM |
| O=C1c2c(O)c(=O)ccn2N(C2c3ccc(Cl)c(F)c3CSc3c(Cl)cccc32)CC12CC2 (stereo not shown) [Compound 23] | 100 to 1000 nM |
| CC1CC12CN(C1c3ccccc3SCc3c1ccc(F)c3F)n1ccc(=O)c(O)c1C2=O (stereo not shown) [Compound 20] | < 100 nM |
| O=C1c2c(O)c(=O)ccn2N(C2c3ccc(F)c(F)c3CSc3c(F)cccc32)CC12CC2 (stereo not shown) [Compound 17] | < 100 nM |
| O=C1c2c(O)c(=O)ccn2N(C2c3ccc(Cl)cc3CSc3ccccc32)CC12CC2 (stereo not shown) [Compound 4] | < 100 nM |
| Cc1cccc2c1SCc1ccccc1C2N1CC2(CC2)C(=O)c2c(O)c(=O)ccn21 (stereo not shown) [Compound 11] | 100 to 1000 nM |
| Cc1cccc2c1SCc1c(ccc(F)c1F)C2N1C(C)C2(CC2)C(=O)c2c(O)c(=O)ccn21 (stereo not shown) [Compound 27] | < 100 nM |
| Cc1cccc2c1SCc1c(F)cccc1C2N1CC2(CC2)C(=O)c2c(O)c(=O)ccn21 (stereo not shown) [Compound 10] | < 100 nM |
| O=C1c2c(O)c(=O)ccn2N(C2c3ccccc3SCc3c2ccc(Cl)c3F)CC12CC2 (stereo not shown) [Compound 19] | < 100 nM |
| [2H]c1c([2H])c([2H])c2c(c1[2H])SCc1c(ccc(F)c1F)[C@@H]2N1CC2(CC2)C(=O)c2c(O)c(=O)ccn21 [Compound 39] | < 100 nM |
| O=C1c2c(O)c(=O)ccn2N(C2c3ccc(Cl)c(F)c3CSc3c(F)cccc32)CC12CC2 (stereo not shown) [Compound 24] | 100 to 1000 nM |
| CC1N(C2c3ccc(F)c(F)c3CSc3c(F)cccc32)n2ccc(=O)c(O)c2C(=O)C12CC2 (stereo not shown) [Compound 26] | 100 to 1000 nM |

Test system: influenza A virus
Experiment: not given
Conditions: mouse, in vivo

| Compound | survival rate |
| --- | --- |
| CCOC(=O)C1=C[C@@H](OC(CC)CC)[C@H](NC(C)=O)[C@@H](N)C1 [oseltamivir] | 16.7% |
